Results taken from the supplement of paper PMC9588766.
“And” between values parts separate entries of the source, which are not always exact repeats. Identical values can stand only once. Counter-ions that a name gives are not always drawn. Whole data set: some 1,900 compounds, median “cell viability of compound + 1 nM pemigatinib relative to pemigatinib-only (DMSO) wells” near 0.95, cut for the lowest 2% near 0.22. This is one part of the list.

tested on: PDC-DUC18828; test: cell viability of compound + 1 nM pemigatinib relative to pemigatinib-only (DMSO) wells (fraction); PDC-DUC18828 is a patient-derived cholangiocarcinoma cell line; higher = less growth inhibition; conditions: first compound 1 µM; pemigatinib concentration 1 nM; 72 h
Description: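 Selleck Bioactive library screen in the patient-derived FGFR2 fusion-positive ICC cell line PDC-DUC18828 (500 cells/well). Each compound was tested at 1 uM with 1 nM pemigatinib, in triplicate, for 72 h. Viability was read by CellTiter-Glo and normalised to plate DMSO controls. Value is the paper's averaged normalised viability.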

| Compound | cell viability |
| --- | --- |
| CC(C)(C)c1cnc(CSc2cnc(NC(=O)C3CCNCC3)s2)o1 + CCN1C(=O)N(c2c(F)c(OC)cc(OC)c2F)Cc2cnc3[nH]c(CN4CCOCC4)cc3c21 [pemigatinib] | 0.281 |
| COc1cc(Br)c(Nc2nc(-c3c(C)nc4ncccn34)cs2)c(Br)c1 + CCN1C(=O)N(c2c(F)c(OC)cc(OC)c2F)Cc2cnc3[nH]c(CN4CCOCC4)cc3c21 [pemigatinib] | 0.466 and 0.376 |
| COC(=O)Nc1nc2cc(C(=O)c3cccs3)ccc2[nH]1 [Nocodazole] + CCN1C(=O)N(c2c(F)c(OC)cc(OC)c2F)Cc2cnc3[nH]c(CN4CCOCC4)cc3c21 [pemigatinib] | 0.316 |
| O=C1NC(=O)C(c2cnc3ccccn23)=C1c1cn2c3c(cc(F)cc13)CN(C(=O)N1CCCCC1)CC2 + CCN1C(=O)N(c2c(F)c(OC)cc(OC)c2F)Cc2cnc3[nH]c(CN4CCOCC4)cc3c21 [pemigatinib] | 0.544 |
| O=C(NC[C@H](O)CN1CCc2ccccc2C1)c1cc(NC2COC2)ncn1 + CCN1C(=O)N(c2c(F)c(OC)cc(OC)c2F)Cc2cnc3[nH]c(CN4CCOCC4)cc3c21 [pemigatinib] | 0.878 |
| COc1cc2ncnc(Sc3nnc(C)s3)c2cc1OC + CCN1C(=O)N(c2c(F)c(OC)cc(OC)c2F)Cc2cnc3[nH]c(CN4CCOCC4)cc3c21 [pemigatinib] | 0.985 |
| Nc1[nH]cnc2ncnc1-2 [Adenine HCl] + CCN1C(=O)N(c2c(F)c(OC)cc(OC)c2F)Cc2cnc3[nH]c(CN4CCOCC4)cc3c21 [pemigatinib] | 0.954 |
| C[C@@H](NCCCc1cccc(C(F)(F)F)c1)c1cccc2ccccc12 [Cinacalcet HCl] + CCN1C(=O)N(c2c(F)c(OC)cc(OC)c2F)Cc2cnc3[nH]c(CN4CCOCC4)cc3c21 [pemigatinib] | 0.986 |
| CC(=O)Nc1cccc(-n2c(=O)n(C3CC3)c(=O)c3c(Nc4ccc(I)cc4F)n(C)c(=O)c(C)c32)c1 + CCN1C(=O)N(c2c(F)c(OC)cc(OC)c2F)Cc2cnc3[nH]c(CN4CCOCC4)cc3c21 [pemigatinib] | 0.717 |
| OC(Cn1cncn1)(Cn1cncn1)c1ccc(F)cc1F [Fluconazole] + CCN1C(=O)N(c2c(F)c(OC)cc(OC)c2F)Cc2cnc3[nH]c(CN4CCOCC4)cc3c21 [pemigatinib] | 1.04 |
| NCCc1c[nH]cn1 [Histamine 2HCl] + CCN1C(=O)N(c2c(F)c(OC)cc(OC)c2F)Cc2cnc3[nH]c(CN4CCOCC4)cc3c21 [pemigatinib] | 0.941 |
| N=C(N)NC(=N)NCCc1ccccc1 [Phenformin HCl] + CCN1C(=O)N(c2c(F)c(OC)cc(OC)c2F)Cc2cnc3[nH]c(CN4CCOCC4)cc3c21 [pemigatinib] | 0.952 |
| CO[C@H]1/C=C/O[C@@]2(C)Oc3c(C)c(O)c4c(O)c(c(/C=N/N5CCN(C6CCCC6)CC5)c(O)c4c3C2=O)NC(=O)/C(C)=C\C=C\[C@H](C)[C@H](O)[C@@H](C)[C@@H](O)[C@@H](C)[C@H](OC(C)=O)[C@@H]1C [Rifapentine] + CCN1C(=O)N(c2c(F)c(OC)cc(OC)c2F)Cc2cnc3[nH]c(CN4CCOCC4)cc3c21 [pemigatinib] | 0.966 |
| CN1CCC(=C2c3ccccc3C=Cc3ccccc32)CC1 [Cyproheptadine HCl] + CCN1C(=O)N(c2c(F)c(OC)cc(OC)c2F)Cc2cnc3[nH]c(CN4CCOCC4)cc3c21 [pemigatinib] | 0.979 |
| CNC1CCCN(c2c(F)cc3c(=O)c(C(=O)O)cn(C4CC4)c3c2OC)C1 (stereo unspecified) [Balofloxacin] + CCN1C(=O)N(c2c(F)c(OC)cc(OC)c2F)Cc2cnc3[nH]c(CN4CCOCC4)cc3c21 [pemigatinib] | 1.05 |
| CC[C@H]1[C@@H](O)[C@@H]2[C@H](CC[C@]3(C)[C@@H]([C@H](C)CCC(=O)O)CC[C@@H]23)[C@@]2(C)CC[C@@H](O)C[C@@H]12 [Obeticholic Acid] + CCN1C(=O)N(c2c(F)c(OC)cc(OC)c2F)Cc2cnc3[nH]c(CN4CCOCC4)cc3c21 [pemigatinib] | 0.961 |
| C[C@@H](Oc1ccc2[nH]nc(/C=C/c3cnn(CCO)c3)c2c1)c1c(Cl)cncc1Cl + CCN1C(=O)N(c2c(F)c(OC)cc(OC)c2F)Cc2cnc3[nH]c(CN4CCOCC4)cc3c21 [pemigatinib] | 0.232 |
| C[C@H]1O[C@H](O[C@H]2[C@H](O)[C@@H](O)[C@@H](O[C@H]3[C@H](O)[C@@H](O)C(O)O[C@@H]3CO)O[C@@H]2CO)[C@H](O)[C@@H](O)[C@@H]1N[C@H]1C=C(CO)[C@@H](O)[C@H](O)[C@H]1O (stereo partly specified) [Acarbose] + CCN1C(=O)N(c2c(F)c(OC)cc(OC)c2F)Cc2cnc3[nH]c(CN4CCOCC4)cc3c21 [pemigatinib] | 0.952 |

| Compound | cell viability |
| --- | --- |
| CC(C)(O)[C@H]1CC[C@@](C)([C@H]2[C@@H](O)C[C@@]3(C)[C@@H]4C[C@H](O[C@@H]5O[C@H](CO)[C@@H](O)[C@H](O)[C@H]5O)[C@H]5C(C)(C)[C@@H](O[C@@H]6OC[C@@H](O)[C@H](O)[C@H]6O)CC[C@@]56C[C@@]46CC[C@]23C)O1 [Astragaloside A] + CCN1C(=O)N(c2c(F)c(OC)cc(OC)c2F)Cc2cnc3[nH]c(CN4CCOCC4)cc3c21 [pemigatinib] | 0.913 |
| C=C1CC[C@H](O)C/C1=C/C=C1\CCC[C@]2(C)[C@@H]([C@H](C)CCCC(C)C)CC[C@@H]12 [Vitamin D3] + CCN1C(=O)N(c2c(F)c(OC)cc(OC)c2F)Cc2cnc3[nH]c(CN4CCOCC4)cc3c21 [pemigatinib] | 0.931 |
| O=C(O)[C@]1(Cc2cccc(Nc3nccs3)n2)CC[C@@H](Oc2cccc(Cl)c2F)CC1 + CCN1C(=O)N(c2c(F)c(OC)cc(OC)c2F)Cc2cnc3[nH]c(CN4CCOCC4)cc3c21 [pemigatinib] | 0.355 |
| COc1cc2c(Nc3ccc(NC(=O)c4ccccc4)cc3)ncnc2cc1OCCCN1CCOCC1 + CCN1C(=O)N(c2c(F)c(OC)cc(OC)c2F)Cc2cnc3[nH]c(CN4CCOCC4)cc3c21 [pemigatinib] | 0.872 |
| CC(=O)Nc1ccc(C(=O)Nc2ccccc2N)cc1 [CI994 (Tacedinaline)] + CCN1C(=O)N(c2c(F)c(OC)cc(OC)c2F)Cc2cnc3[nH]c(CN4CCOCC4)cc3c21 [pemigatinib] | 0.834 |
| COc1cccc2c1c(O)c(C(=O)N(C)c1ccc(C(F)(F)F)cc1)c(=O)n2C [Tasquinimod] + CCN1C(=O)N(c2c(F)c(OC)cc(OC)c2F)Cc2cnc3[nH]c(CN4CCOCC4)cc3c21 [pemigatinib] | 0.875 |
| CCCc1cc(C(N)=S)ccn1 [Protionamide] + CCN1C(=O)N(c2c(F)c(OC)cc(OC)c2F)Cc2cnc3[nH]c(CN4CCOCC4)cc3c21 [pemigatinib] | 0.979 |
| C#Cc1cccc(Nc2ncnc3cc(OC)c(OCCCCCCC(=O)NO)cc23)c1 + CCN1C(=O)N(c2c(F)c(OC)cc(OC)c2F)Cc2cnc3[nH]c(CN4CCOCC4)cc3c21 [pemigatinib] | 0.972 |
| CC(=O)S[C@@H]1CC2=CC(=O)CC[C@]2(C)[C@H]2CC[C@@]3(C)[C@@H](CC[C@@]34CCC(=O)O4)[C@H]12 [Spironolactone] + CCN1C(=O)N(c2c(F)c(OC)cc(OC)c2F)Cc2cnc3[nH]c(CN4CCOCC4)cc3c21 [pemigatinib] | 0.949 |
| CCOC(=O)[C@@H](N)Cc1ccc(-c2cc(O[C@H](c3ccc(Cl)cc3-n3ccc(C)n3)C(F)(F)F)nc(N)n2)cc1 [Telotristat Etiprate (LX 1606 Hippurate)] + CCN1C(=O)N(c2c(F)c(OC)cc(OC)c2F)Cc2cnc3[nH]c(CN4CCOCC4)cc3c21 [pemigatinib] | 0.974 |
| CN1CCN(C2=Nc3ccccc3Oc3ccc(Cl)cc32)CC1 [Loxapine Succinate] + CCN1C(=O)N(c2c(F)c(OC)cc(OC)c2F)Cc2cnc3[nH]c(CN4CCOCC4)cc3c21 [pemigatinib] | 0.981 |
| CC(C)CC(N)=O [Isovaleramide] + CCN1C(=O)N(c2c(F)c(OC)cc(OC)c2F)Cc2cnc3[nH]c(CN4CCOCC4)cc3c21 [pemigatinib] | 0.993 |
| COc1c2occc2cc2ccc(=O)oc12 [Methoxsalen] + CCN1C(=O)N(c2c(F)c(OC)cc(OC)c2F)Cc2cnc3[nH]c(CN4CCOCC4)cc3c21 [pemigatinib] | 1.02 |
| N=C(NCCCCCCNC(=N)NC(=N)Nc1ccc(Cl)cc1)NC(=N)Nc1ccc(Cl)cc1 [Chlorhexidine HCl] + CCN1C(=O)N(c2c(F)c(OC)cc(OC)c2F)Cc2cnc3[nH]c(CN4CCOCC4)cc3c21 [pemigatinib] | 0.887 |
| N#Cc1ccc(C(c2ccc(C#N)cc2)n2cncn2)cc1 [Letrozole] + CCN1C(=O)N(c2c(F)c(OC)cc(OC)c2F)Cc2cnc3[nH]c(CN4CCOCC4)cc3c21 [pemigatinib] | 0.991 |
| Clc1ccc(CCC(Cn2ccnc2)Sc2c(Cl)cccc2Cl)cc1 (stereo unspecified) [Butoconazole nitrate] + CCN1C(=O)N(c2c(F)c(OC)cc(OC)c2F)Cc2cnc3[nH]c(CN4CCOCC4)cc3c21 [pemigatinib] | 0.98 |
| C[C@@]1(C(=O)Nc2ccc(F)nc2)CCCN1c1nc(Nc2cc(C3CC3)n[nH]2)c2cccn2n1 + CCN1C(=O)N(c2c(F)c(OC)cc(OC)c2F)Cc2cnc3[nH]c(CN4CCOCC4)cc3c21 [pemigatinib] | 0.688 |
| CN(C)C(=O)Nc1cccc(-c2ccc(N(C)C)cc2)c1 [Atglistatin] + CCN1C(=O)N(c2c(F)c(OC)cc(OC)c2F)Cc2cnc3[nH]c(CN4CCOCC4)cc3c21 [pemigatinib] | 0.956 |
